The compounds below were run against T1, biotinylated truncated STAT6 (123-632)-avi (Homo sapiens, UniProt P42226) (assay: Homogenous Time-Resolved Fluorescence (HTRF) binding assay). Conditions: 0.15 nM biotinylated truncated STAT6 (123-632)-avi, 20 nM fluorescein-labeled probe, 30 minutes room temperature.
T1 sequence (P42226 123-632 limits assumed): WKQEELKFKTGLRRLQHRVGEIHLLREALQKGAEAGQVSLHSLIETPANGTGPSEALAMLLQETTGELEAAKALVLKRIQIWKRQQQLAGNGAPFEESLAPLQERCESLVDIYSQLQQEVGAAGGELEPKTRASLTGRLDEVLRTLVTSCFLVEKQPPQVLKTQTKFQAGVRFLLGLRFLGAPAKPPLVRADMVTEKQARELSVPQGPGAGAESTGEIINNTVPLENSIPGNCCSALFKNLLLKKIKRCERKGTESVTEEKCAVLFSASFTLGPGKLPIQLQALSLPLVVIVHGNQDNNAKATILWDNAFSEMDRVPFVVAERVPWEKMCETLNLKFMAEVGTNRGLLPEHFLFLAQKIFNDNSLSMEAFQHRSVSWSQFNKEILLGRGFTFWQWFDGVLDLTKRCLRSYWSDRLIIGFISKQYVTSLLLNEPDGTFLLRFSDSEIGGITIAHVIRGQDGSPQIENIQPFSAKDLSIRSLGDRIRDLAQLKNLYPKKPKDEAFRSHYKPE

Structure (SMILES)	IC50 [nM]
COc1ccccc1-c1cc(C2=CCCN(C(=O)CCn3ccnn3)C2)c(F)c2[nH]c(C(=O)N3CC4CC3CN4c3ncccc3OC)cc12 (stereo not drawn) [Example I-1457]	100 to 1000
COc1ccccc1-c1cc(C2=CCCN(C(=O)CCn3ccnn3)C2)c(F)c2[nH]c(C(=O)N3CCN(c4ccc5c(c4)Cc4ccccc4-5)CC3)cc12 [Example I-1458]	1000 to 10000
COc1ccccc1-c1cc(C2=CCCN(C(=O)CCn3ccnn3)C2)c(F)c2[nH]c(C(=O)N3CCN(c4ncnc5c4oc4ccccc45)CC3)cc12 [Example I-1459]	< 100
COc1ccccc1-c1cc(C2=CCCN(C(=O)CCn3ccnn3)C2)c(F)c2[nH]c(C(=O)N3CCN(c4ccn5ncc(C#N)c5n4)CC3)cc12 [Example I-1460]	< 100
COC(=O)c1cnc2cc(N3CCN(C(=O)c4cc5c(-c6ccccc6OC)cc(C6=CCCN(C(=O)CCn7ccnn7)C6)c(F)c5[nH]4)CC3)ccc2c1 [Example I-1462]	< 100
COc1ccccc1-c1cc(C2=CCCN(C(=O)CCn3ccnn3)C2)c(F)c2[nH]c(C(=O)N3CCN(c4cncc5nccn45)CC3)cc12 [Example I-1463]	< 100
COc1ccccc1-c1cc(C2=CCCN(C(=O)CCn3ccnn3)C2)c(F)c2[nH]c(C(=O)N3CCC(C(=O)NCC4CC4)CC3)cc12 [Example I-1465]	< 100
CN(C)C(=O)c1cc2ccc(C3=CCCN(C(=O)CCn4cccn4)C3)c(F)c2[nH]1 [Example I-1467]	< 100
COc1ccccc1-c1cc(C(=O)N(C)C)cc2cc(C3=CCCN(C(C)=O)C3)[nH]c12 [Example I-1473]	100 to 1000
COc1ccccc1-c1cc(C(=O)N(C)C)cc2sc(C3=CCCN(C(=O)CCn4cccn4)C3)nc12 [Example I-1478]	< 100
COc1ccccc1-c1cc(C2=CCCN(C(C)=O)C2)c(F)c2cc(-n3ccccc3=O)oc12 [Example I-1479]	100 to 1000
COc1ccccc1-c1cc(C2CCCN(C(C)=O)C2)c(F)c2[nH]c(C(=O)N(C)C3CC3)cc12 (stereo not drawn) [Example I-1488]	1000 to 10000
CC(=O)N1CCC=C(c2cc(-c3ccc(C(=O)N4CCCC4)cc3)c3cc(C(=O)N(C)C)[nH]c3c2F)C1 [Example I-1492]	< 100
CC(=O)N1CCC=C(c2cc(-c3cc(C(F)(F)F)nn3C)c3cc(C(=O)N(C)C)[nH]c3c2F)C1 [Example I-1493]	100 to 1000
COc1ccc(-c2cc(C3=CCCN(C(C)=O)C3)c(F)c3[nH]c(C(=O)N(C)C)cc23)c(C#N)c1 [Example I-1494]	100 to 1000
CC(=O)N1CCC=C(c2cc(-c3cc(F)ccc3C(F)(F)F)c3cc(C(=O)N(C)C)[nH]c3c2F)C1 [Example I-1495]	100 to 1000
CC(=O)N1CCC=C(c2cc(-c3ccc(CO)cc3)c3cc(C(=O)N(C)C)[nH]c3c2F)C1 [Example I-1496]	100 to 1000
CC(=O)N1CCC=C(c2cc(-c3ccnc(N4CCNCC4)c3)c3cc(C(=O)N(C)C)[nH]c3c2F)C1 [Example I-1497]	100 to 1000
CC(=O)N1CCC=C(c2cc(-c3cc(C)nn3C)c3cc(C(=O)N(C)C)[nH]c3c2F)C1 [Example I-1498]	100 to 1000

Structure (SMILES)	IC50 [nM]
CN(C)C(=O)c1cc2cc(C3=CCCN(C(=O)CCn4ccnn4)C3)cc(NC3CCN(c4ccccn4)CC3)c2o1 [Example I-1499]	< 100
CC(=O)N1CCC=C(c2cc(-c3ccc4[nH]ccc4c3)c3cc(C(=O)N(C)C)[nH]c3c2F)C1 [Example I-1500]	100 to 1000
COc1cc(C)c(-c2cc(C3=CCCN(C(C)=O)C3)c(F)c3[nH]c(C(=O)N(C)C)cc23)cc1C [Example I-1501]	100 to 1000
CC(=O)N1CCC=C(c2cc(-c3ccc(-n4ccnn4)cc3)c3cc(C(=O)N(C)C)[nH]c3c2F)C1 [Example I-1503]	100 to 1000
COc1cc(-c2cc(C3=CCCN(C(C)=O)C3)c(F)c3[nH]c(C(=O)N(C)C)cc23)cc(OC)c1OC [Example I-1504]	100 to 1000
CC(=O)N1CCC=C(c2cc(-c3cnn(-c4ccccc4)c3)c3cc(C(=O)N(C)C)[nH]c3c2F)C1 [Example I-1505]	100 to 1000
CC(=O)N1CCC=C(c2cc(-c3ccc(N4CCN(C)CC4)nc3)c3cc(C(=O)N(C)C)[nH]c3c2F)C1 [Example I-1506]	100 to 1000
CC(=O)N1CCC=C(c2cc(-c3cccc4c3CN(C)C4=O)c3cc(C(=O)N(C)C)[nH]c3c2F)C1 [Example I-1508]	< 100
CC(=O)N1CCC=C(c2cc(-c3ccc4c(c3)NC(=O)C4)c3cc(C(=O)N(C)C)[nH]c3c2F)C1 [Example I-1509]	100 to 1000
CN(C)C(=O)c1cc2cc(C3=CCCN(C(=O)CCn4ccnn4)C3)cc(N3CCC(Oc4ncccn4)CC3)c2o1 [Example I-1510]	< 100
CN(C)C(=O)c1cc2cc(C3=CCCN(C(=O)CCn4ccnn4)C3)cc(N3CCC(O)(c4ccc(F)cc4)CC3)c2o1 [Example I-1511]	< 100
Nc1nc(NC(=O)c2cc3cc(C4=CCCN(C(=O)CCn5ccnn5)C4)ccc3o2)cs1 [Example I-1512]	1000 to 10000
CN(C)C(=O)c1cc2cc(C3=CCCN(C(=O)CCn4ccnn4)C3)cc(N3CCC(Cc4ccccc4)CC3)c2o1 [Example I-1513]	100 to 1000
CC(C)c1ccccc1Nc1cc(C2=CCCN(C(=O)CCn3ccnn3)C2)cc2cc(C(=O)N(C)C)oc12 [Example I-1515]	100 to 1000
Cc1ccc(-c2cc(C3=CCCN(C(=O)CCn4ccnn4)C3)cc3cc(C(=O)N(C)C)oc23)nc1 [Example I-1516]	100 to 1000
COc1cc(F)cc(Nc2cc(C3=CCCN(C(=O)CCn4ccnn4)C3)cc3cc(C(=O)N(C)C)oc23)c1 [Example I-1517]	100 to 1000
CN(C)C(=O)c1cc2cc(C3=CCCN(C(=O)CCn4ccnn4)C3)cc(Nc3cccc(OC(F)F)c3)c2o1 [Example I-1518]	100 to 1000
COc1ccccc1-c1cc(C2=CCCN(C(=O)CCn3ccnn3)C2)c(F)c2[nH]c(C(=O)N3CCCN(C(=O)c4ccco4)CC3)cc12 [Example I-1520]	< 100
COc1ccccc1-c1cc(C2=CCCN(C(=O)CCn3ccnn3)C2)c(F)c2[nH]c(C(=O)N3CCN(C(N)=O)CC3)cc12 [Example I-1521]	< 100

Structure (SMILES)	IC50 [nM]
COc1ccccc1-c1cc(C2=CCCN(C(=O)CCn3ccnn3)C2)c(F)c2cc(C#N)oc12 [Example I-1526]	1000 to 10000
COc1cc(N2CCNCC2)ccc1-c1cc(C2=CCCN(C(=O)CCn3ccnn3)C2)c(F)c2[nH]c(C(=O)N(C)C)cc12 [Example I-1527]	< 100
CN(C)C(=O)c1cc2c(-c3ccc(N4CCNCC4)cc3)cc(C3CCCN(C(=O)CCn4ccnn4)C3)c(F)c2[nH]1 (stereo not drawn) [Example I-1528]	< 100
COc1ccccc1-c1cc(C2=CCCN(C(=O)CCn3ccnn3)C2)c(F)c2[nH]c(C(=O)N3CCC(c4ccccc4)C3)cc12 (stereo not drawn) [Example I-1530]	< 100
COc1ccccc1-c1cc(C2=CCCN(C(=O)CCn3ccnn3)C2)c(F)c2[nH]c(C(=O)N3CCN(c4ccc5ccccc5n4)CC3)cc12 [Example I-1532]	100 to 1000
COc1ccccc1-c1cc(C2=CCCN(C(=O)CCn3ccnn3)C2)c(F)c2[nH]c(C(=O)N3CCC[C@H]3c3cccnc3)cc12 [Example I-1534]	< 100
COc1ccccc1-c1cc(C2=CCCN(C(=O)CCn3ccnn3)C2)c(F)c2[nH]c(C(=O)N3CC(NC(C)=O)C3)cc12 [Example I-1535]	100 to 1000
COc1ccccc1-c1cc(C2=CCCN(C(=O)CCn3ccnn3)C2)c(F)c2[nH]c(C(=O)N3CCN(c4ccc(Cl)cn4)CC3)cc12 [Example I-1536]	< 100
COc1ccccc1-c1cc(C2=CCCN(C(=O)CCn3ccnn3)C2)c(F)c2[nH]c(C(=O)N3CCC[C@H]3c3cccc(Br)c3)cc12 [Example I-1537]	1000 to 10000
COc1ccccc1-c1cc(C2=CCCN(C(=O)CCn3ccnn3)C2)c(F)c2[nH]c(C(=O)N3CCN(c4nc5ccccc5o4)CC3)cc12 [Example I-1538]	< 100
COc1ccccc1-c1cc(C2=CCCN(C(=O)CCn3ccnn3)C2)c(F)c2[nH]c(C(=O)N3CCC(c4nnc(-c5ccccc5)o4)CC3)cc12 [Example I-1539]	100 to 1000
COc1ccccc1-c1cc(C2=CCCN(C(=O)CCn3ccnn3)C2)c(F)c2[nH]c(C(=O)N3CCC(Oc4ccncc4)CC3)cc12 [Example I-1540]	< 100
COc1ccccc1-c1cc(C2=CCCN(C(=O)CCn3ccnn3)C2)c(F)c2[nH]c(C(=O)N3CCC(C)(C)C3)cc12 [Example I-1541]	1000 to 10000
COc1ccccc1-c1cc(C2=CCCN(C(=O)CCn3ccnn3)C2)c(F)c2[nH]c(C(=O)N3CCC[C@@H]3c3cccc(F)c3)cc12 [Example I-1542]	1000 to 10000
COc1ccccc1-c1cc(C2=CCCN(C(=O)CCn3ccnn3)C2)c(F)c2[nH]c(C(=O)N3CCN(c4ccc(C(F)(F)F)c(Cl)n4)CC3)cc12 [Example I-1543]	1000 to 10000
COc1ccccc1-c1cc(C2=CCCN(C(=O)CCn3ccnn3)C2)c(F)c2[nH]c(C(=O)N3CC[C@@H](C(N)=O)C3)cc12 [Example I-1544]	< 100
COc1ccccc1-c1cc(C2=CCCN(C(=O)CCn3ccnn3)C2)c(F)c2[nH]c(C(=O)N3CCCC(C#N)C3)cc12 (stereo not drawn) [Example I-1546]	< 100
COc1ccccc1-c1cc(C2=CCCN(C(=O)CCn3ccnn3)C2)c(F)c2[nH]c(C(=O)N3CC(CO)C3)cc12 [Example I-1547]	100 to 1000
COc1ccccc1-c1cc(C2=CCCN(C(=O)CCn3ccnn3)C2)c(F)c2[nH]c(C(=O)N3CCSCC3)cc12 [Example I-1548]	< 100

Source: US20250214977A1, “STAT6 INHIBITORS AND USES THEREOF” (Kymera Therapeutics, Inc., priority 2024, published 2025)
